{
  "source": "the supplement of paper PMC3334620",
  "note": "Whole data set: some 33,000 sequences, median “E-score (-0.5 to 0.5)” near -0.041, cut for the highest 2% near 0.37. The list shows a part of the results.",
  "data": [
    {"biological_target": "T1, Ecm22 (UniProt Q05958)", "T1 sequence": "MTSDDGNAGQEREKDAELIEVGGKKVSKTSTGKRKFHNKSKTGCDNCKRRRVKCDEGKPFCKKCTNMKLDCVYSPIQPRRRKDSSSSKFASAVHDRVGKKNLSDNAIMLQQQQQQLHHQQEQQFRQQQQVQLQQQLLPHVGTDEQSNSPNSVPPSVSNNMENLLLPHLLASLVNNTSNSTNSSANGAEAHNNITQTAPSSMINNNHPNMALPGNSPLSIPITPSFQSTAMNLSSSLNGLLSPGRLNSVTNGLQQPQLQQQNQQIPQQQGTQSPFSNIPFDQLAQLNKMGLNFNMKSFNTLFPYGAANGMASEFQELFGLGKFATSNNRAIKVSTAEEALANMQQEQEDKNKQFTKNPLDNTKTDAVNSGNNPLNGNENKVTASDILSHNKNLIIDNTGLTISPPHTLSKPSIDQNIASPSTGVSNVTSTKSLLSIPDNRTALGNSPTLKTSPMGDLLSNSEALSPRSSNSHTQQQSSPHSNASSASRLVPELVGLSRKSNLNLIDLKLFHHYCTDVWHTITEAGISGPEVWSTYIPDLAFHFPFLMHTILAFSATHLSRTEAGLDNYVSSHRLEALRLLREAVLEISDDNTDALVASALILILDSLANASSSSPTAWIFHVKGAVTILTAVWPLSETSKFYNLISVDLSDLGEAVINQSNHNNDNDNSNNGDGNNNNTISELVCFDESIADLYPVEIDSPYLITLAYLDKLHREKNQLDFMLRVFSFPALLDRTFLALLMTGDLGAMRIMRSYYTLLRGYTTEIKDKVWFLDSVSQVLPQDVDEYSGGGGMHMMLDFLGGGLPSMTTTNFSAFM", "assay": "PBM E-score (8-mer binding enrichment) (E-score (-0.5 to 0.5)); higher = stronger / more preferred TF binding; most listed sequences are background and not binding sites", "conditions": "protein concentration: 200 nM; construct: GST-full length", "method_in_brief": "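Yeast transcription factors, full-length or as DNA-binding domains, were expressed with a GST tag using PURExpress in vitro transcription/translation. At about 100-200 nM they were applied to universal all-10-mer Agilent arrays, double-stranded by primer extension on fresh or once-stripped slides. Fluorescent anti-GST detected bound protein, and masliner normalised the scans. E-scores for ungapped eight-base words, pooled with reverse complements, came from the Universal PBM Analysis Suite.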", "values": [
      {"sequence": "AAGGAGTC", "PBM E-score": -0.179},
      {"sequence": "CTGAGCGC", "PBM E-score": -0.0118},
      {"sequence": "AACCCGTA", "PBM E-score": 0.255},
      {"sequence": "GAGGGTCA", "PBM E-score": -0.124},
      {"sequence": "GTACATGA", "PBM E-score": 0.175},
      {"sequence": "TCTAGTCA", "PBM E-score": -0.00339},
      {"sequence": "CTGGCATA", "PBM E-score": -0.118},
      {"sequence": "CAACGAGG", "PBM E-score": 0.343},
      {"sequence": "CATAAGCC", "PBM E-score": -0.213},
      {"sequence": "CACCACGC", "PBM E-score": -0.182},
      {"sequence": "GCTCTTAC", "PBM E-score": 0.0699},
      {"sequence": "CCGCGGTA", "PBM E-score": 0.114},
      {"sequence": "CAACGAGA", "PBM E-score": 0.378},
      {"sequence": "TGCTCAAA", "PBM E-score": -0.115},
      {"sequence": "CGGGGCCC", "PBM E-score": 0.0276},
      {"sequence": "AATTGTCA", "PBM E-score": -0.00223},
      {"sequence": "CAATATTG", "PBM E-score": 0.00456},
      {"sequence": "AGATTCAA", "PBM E-score": -0.147},
      {"sequence": "AACATGCT", "PBM E-score": -0.0554},
      {"sequence": "GTAACGAA", "PBM E-score": 0.306},
      {"sequence": "ACCGATTG", "PBM E-score": 0.115},
      {"sequence": "TAGACAGA", "PBM E-score": -0.0668},
      {"sequence": "CCCATACG", "PBM E-score": 0.368},
      {"sequence": "CGTATGCA", "PBM E-score": 0.341},
      {"sequence": "GAAAGCTC", "PBM E-score": -0.0556},
      {"sequence": "CAGCCAGA", "PBM E-score": -0.0613},
      {"sequence": "AGAGAGGC", "PBM E-score": -0.358},
      {"sequence": "AAAAGAGT", "PBM E-score": -0.212},
      {"sequence": "GATGGAAC", "PBM E-score": 0.214},
      {"sequence": "AGAGTTAC", "PBM E-score": -0.0231},
      {"sequence": "CATTATAA", "PBM E-score": 0.17},
      {"sequence": "GCCTAGTA", "PBM E-score": -0.0723},
      {"sequence": "AATGTTTG", "PBM E-score": -0.108},
      {"sequence": "AAGCATAG", "PBM E-score": -0.11},
      {"sequence": "ACAGTTGG", "PBM E-score": -0.197},
      {"sequence": "CATCATAC", "PBM E-score": 0.0354},
      {"sequence": "GACTGAGC", "PBM E-score": -0.217},
      {"sequence": "GGGGTCGA", "PBM E-score": -0.159},
      {"sequence": "ATTATCGA", "PBM E-score": -0.117},
      {"sequence": "ACGAAGCA", "PBM E-score": 0.378},
      {"sequence": "ATATCGAG", "PBM E-score": -0.0856},
      {"sequence": "AATGCTCT", "PBM E-score": -0.102},
      {"sequence": "CCCTCCTA", "PBM E-score": -0.202},
      {"sequence": "GCAAATAC", "PBM E-score": 0.0525},
      {"sequence": "GATACAAA", "PBM E-score": 0.163},
      {"sequence": "CATGGTAG", "PBM E-score": -0.127},
      {"sequence": "AAAGACGT", "PBM E-score": 0.078},
      {"sequence": "CAGCGGGG", "PBM E-score": -0.19},
      {"sequence": "GTTTCCTA", "PBM E-score": 0.0344},
      {"sequence": "ACAGCAAC", "PBM E-score": -0.00316},
      {"sequence": "ATCCTAAG", "PBM E-score": 0.0699},
      {"sequence": "AAAACGGA", "PBM E-score": 0.0705},
      {"sequence": "CGTATCAC", "PBM E-score": 0.365},
      {"sequence": "CATTGTAC", "PBM E-score": 0.153},
      {"sequence": "CTTACCCA", "PBM E-score": -0.141},
      {"sequence": "TTCCAGAA", "PBM E-score": 0.0403},
      {"sequence": "CTGCAATA", "PBM E-score": 0.0156},
      {"sequence": "AGGATCAG", "PBM E-score": -0.202},
      {"sequence": "GAGATACA", "PBM E-score": -0.0964},
      {"sequence": "ACTTCAGC", "PBM E-score": -0.171},
      {"sequence": "GGATTACC", "PBM E-score": -0.098},
      {"sequence": "TGTGACAA", "PBM E-score": -0.11},
      {"sequence": "GATAGGAA", "PBM E-score": 0.0954},
      {"sequence": "AAGCGTGG", "PBM E-score": -0.016},
      {"sequence": "AGAACGCT", "PBM E-score": -0.0941},
      {"sequence": "CCAATACG", "PBM E-score": 0.177},
      {"sequence": "GACACGGA", "PBM E-score": 0.173},
      {"sequence": "GACCTACA", "PBM E-score": -0.18},
      {"sequence": "AAGAAATT", "PBM E-score": 0.00396},
      {"sequence": "ACACGCCG", "PBM E-score": 0.131},
      {"sequence": "AAGTACTG", "PBM E-score": -0.0128},
      {"sequence": "GTGCCCGA", "PBM E-score": -0.265},
      {"sequence": "AAACACAA", "PBM E-score": -0.045},
      {"sequence": "CTTGCGTA", "PBM E-score": 0.149},
      {"sequence": "AGACGCGA", "PBM E-score": 0.136},
      {"sequence": "ACATCCCG", "PBM E-score": 0.0243},
      {"sequence": "AAAAGTAG", "PBM E-score": -0.248},
      {"sequence": "AACGGGTA", "PBM E-score": 0.293},
      {"sequence": "CGGAGGAC", "PBM E-score": -0.0676},
      {"sequence": "AGAGTGAG", "PBM E-score": -0.0279},
      {"sequence": "CACCGACA", "PBM E-score": 0.023},
      {"sequence": "ACTTGTCA", "PBM E-score": -0.0799},
      {"sequence": "AGCAAGAC", "PBM E-score": -0.107},
      {"sequence": "ACGTTCCC", "PBM E-score": 0.269},
      {"sequence": "ATTAATTG", "PBM E-score": -0.107},
      {"sequence": "CACACCTC", "PBM E-score": -0.211}
    ]}
  ]
}
